Assay results reported in PubChem BioAssay AID588855 (National Center for Advancing Translational Sciences (NCATS), 2011).
The campaign covered roughly 410,000 compounds. About 5,000 (1.2%) were called active. Inconclusive results, whose numbers are uncertain, are shown with a selection of clear calls. The call rests on the fitted dose curve; in most records, active means well fitted inhibition curve with a large enough effect; inconclusive means small, poorly fitted or top-dose-only effect; inactive means no such curve, though single readings can be large or run the other way. A potency beside an inconclusive call is a rough fit, not a confirmed value.

Test: qHTS for Inhibitors of TGF-b; further: nearly all actives have a fitted effect of over 65% in size
Settings: HepG2 CAGA-GFP TGF-b/SMAD3 reporter, GFP fluorescence, 18 h, TGF-beta stimulated, 500 pg/mL final; series mostly up to 46.1 µM
Summary of the method: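 TGF-beta reporter screen: HEPG2 CAGA-GFP, 1% FBS, 500 pg/mL TGF-beta final, 18 h; per-cell GFP summed per well; curves fitted and categorized by class.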
Potency means the concentration at half of the fitted maximal effect; tags describe the fitted curve by direction and shape.

Question: For `COC(=O)C1=C(C)N(c2cccc(Cl)c2)C(=O)C1`, which Potency is on record?
Answer: inconclusive: 11.2 µM [inhibitor, partial curve]

Question: For `COC(=O)c1c(NC(NC(=O)C(C)C)C(Cl)(Cl)Cl)sc2c1CCC2` (stereo not given), which Potency is on record?
Answer: inconclusive: 35.5 µM [inhibitor, single point]

Question: For `CCN(CC)CCCOc1cc2nc(N3CCCN(C)CC3)nc(NC3CCN(C)CC3)c2cc1OC`, which Potency is on record?
Answer: inconclusive: 7.08 µM [inhibitor, partial curve]

Question: Which Potency does the source give for `Cc1ccccc1N1C(=O)CC(Sc2nnc(-c3ccccc3)o2)C1=O` (stereo not given) here?
Answer: inconclusive: 12.6 µM [inhibitor, partial curve, poor fit]

Question: Which Potency does the source give for `Cc1nnc(N2CCC(C(=O)NCc3ccc(N(C)C)cc3)CC2)c2nn(-c3ccccc3)c(C)c12` here?
Answer: inactive

Question: For `Cc1ccc(C2=NN3C(=O)c4ccccc4C3C2)cc1` (stereo not given), which Potency is on record?
Answer: inconclusive: 11.2 µM [inhibitor, partial curve, poor fit]

Question: For `O=C(Nc1cccc(S(=O)(=O)N2CCCCC2)c1)c1ccc([N+](=O)[O-])o1`, which Potency is on record?
Answer: inconclusive: 8.91 µM [inhibitor, partial curve, poor fit]

Question: Which Potency does the source give for `O=C(Nc1ccc(Cl)cc1Cl)c1cccc(N2C(=O)C=CC2=O)c1` here?
Answer: inconclusive: 22.4 µM [inhibitor, single point]

Question: Which Potency does the source give for `c1ccc(-c2noc(CN3CCCC(OCc4ccccn4)C3)n2)cc1` (stereo not given) here?
Answer: inconclusive: 22.4 µM [inhibitor, single point]

Question: With `C[C@H]1CN([C@@H](C)CO)S(=O)(=O)c2ccc(Br)cc2O[C@H]1CN(C)S(=O)(=O)c1ccccc1` as the compound, how does the Potency read?
Answer: inactive

Question: With `O=C(NCCSCc1ccco1)Nc1cc(Cl)cc(Cl)c1` as the compound, how does the Potency read?
Answer: inconclusive: 10 µM [inhibitor, partial curve, poor fit]

Question: With `O=C(Nc1nc2c(s1)CCc1ccccc1-2)c1cccs1` as the compound, how does the Potency read?
Answer: inconclusive: 22.4 µM [inhibitor, single point]

Question: With `CCOC(=O)N1CCN(C(=O)c2cc(-c3ccncc3)nc3ccccc23)CC1` as the compound, how does the Potency read?
Answer: inactive

Question: Which Potency does the source give for `COc1ccc(C(=O)/C=C/c2cn(CC(O)CN(CC(C)C)CC(C)C)c3ccccc23)cc1OC` (stereo not given) here?
Answer: inconclusive: 11.2 µM [inhibitor, partial curve, poor fit]

Question: With `Cc1cccnc1Nc1nc(-c2ccccc2)cs1` as the compound, how does the Potency read?
Answer: inconclusive: 14.1 µM [inhibitor, partial curve, poor fit]

Question: Which Potency does the source give for `CC(C)c1ccc(NC(=O)CCS(=O)(=O)c2ccc(Br)s2)cc1` here?
Answer: inconclusive: 22.4 µM [inhibitor, single point]

Question: Which Potency does the source give for `COc1ccc(O)c(C(=O)CC(=O)c2ccc(F)cc2)c1` here?
Answer: inconclusive: 25.1 µM [inhibitor, single point]

Question: For `CCN(CC(=O)NCc1cccs1)C(=O)C(c1ccccc1)c1ccccc1`, which Potency is on record?
Answer: inactive

Question: For `O=C(c1ccco1)N(Cc1cccs1)c1ccc(O)cc1`, which Potency is on record?
Answer: inactive

Question: With `CC(Sc1nnc(NC(=O)c2cc3ccccc3oc2=O)s1)c1ccccc1` (stereo not given) as the compound, how does the Potency read?
Answer: inconclusive: 10 µM [inhibitor, partial curve]

Question: With `COc1cccc(-c2cc(C(F)(F)F)nc(NCc3ccc(F)cc3)n2)c1` as the compound, how does the Potency read?
Answer: inconclusive: 15.8 µM [inhibitor, single point]

Question: Which Potency does the source give for `CCCOc1ccc(F)cc1-c1cc(C(=O)NCc2cccc(C(F)(F)F)c2)[nH]n1` here?
Answer: inconclusive: 35.5 µM [inhibitor, single point]

Question: Which Potency does the source give for `O=C(c1cccc(Cl)c1Cl)N(Cc1ccco1)Cc1cccs1` here?
Answer: inconclusive: 22.4 µM [inhibitor, partial curve, poor fit]

Question: For `CC1CCCC(C)N1CCCNC(=O)C(=O)Nc1ccc2nc3n(c(=O)c2c1)CCCCC3` (stereo not given), which Potency is on record?
Answer: inactive

Question: Which Potency does the source give for `Cc1ccc(C)c(N2CCN(C(=O)CN3C(=S)NC(C)(C)CC3C)CC2)c1` (stereo not given) here?
Answer: inconclusive: 20 µM [inhibitor, single point]

Question: With `Cc1ccc(OCCn2cc(C(=O)O)c3ccccc32)cc1` as the compound, how does the Potency read?
Answer: inactive

Question: Which Potency does the source give for `N#Cc1ccccc1NC(=O)Nc1cccs1` here?
Answer: inconclusive: 0.282 µM [inhibitor, full curve, poor fit]

Question: Which Potency does the source give for `COc1cccc2oc3cc(C#CC4(O)CCCCC4)ccc3c(=O)c12` here?
Answer: inconclusive: 14.1 µM [inhibitor, single point]

Question: For `S=C(Nc1ccc(Oc2ccccc2)cc1)NC1CCCCC1`, which Potency is on record?
Answer: inconclusive: 35.5 µM [inhibitor, single point]

Question: With `Cn1c(=O)n(C)c2cc(/C=N/NC(=S)NCc3ccccc3)ccc21` as the compound, how does the Potency read?
Answer: inactive

Question: For `Cc1cccc(C)c1NC(=O)c1ccc2nc(CCc3ccccc3)oc2c1`, which Potency is on record?
Answer: inconclusive: 20 µM [inhibitor, single point]

Question: With `CCOc1ccc2c(c1)C(NC(C)=O)C(=O)N2CCN1CCOCC1` (stereo not given) as the compound, how does the Potency read?
Answer: inactive

Question: Which Potency does the source give for `Cc1ccccc1NS(=O)(=O)c1cc(C(=O)NCCC2=CCCCC2)ccc1C` here?
Answer: inconclusive: 15.8 µM [inhibitor, single point]

Question: For `O=C(NCc1cccs1)c1csc([C@H]2C[C@H](O)[C@@H](CO)O2)n1`, which Potency is on record?
Answer: inconclusive: 2.82 µM [inhibitor, partial curve, poor fit]

Question: Which Potency does the source give for `CCN1C(=O)[C@H]2[C@@H](c3ccc(-c4ccc(C(C)=O)cc4)cc3)N3CCCC[C@@]3(C(=O)OC)[C@H]2C1=O` here?
Answer: inactive

Question: Which Potency does the source give for `COc1ccc(C2C3=C(CCCC3=O)Nc3nc(C(F)(F)F)nn32)cc1OC` (stereo not given) here?
Answer: inactive

Question: For `COc1ccc(CCNc2nc(C)c(C(C)=O)s2)cc1OC`, which Potency is on record?
Answer: inactive

Question: Which Potency does the source give for `C=CCn1c(=O)[nH]c2cc(C(=O)N3CCN(c4cccc(Cl)c4)CC3)ccc2c1=O` here?
Answer: inconclusive: 14.1 µM [inhibitor, partial curve, poor fit]

Question: Which Potency does the source give for `COc1ccccc1CNC(=O)c1c2c(nc3ccccc13)C(=O)N(C1CCCCC1)C2` here?
Answer: inactive

Question: For `CN1/C(=C\C(=O)CSc2cccc[n+]2[O-])C(C)(C)c2ccccc21`, which Potency is on record?
Answer: inactive

Question: For `Cc1cc(C(=O)Cn2nc(C(=O)O)c3ccccc3c2=O)c(C)n1CCc1ccc(Cl)cc1`, which Potency is on record?
Answer: inconclusive: 35.5 µM [inhibitor, single point]

Question: Which Potency does the source give for `NS(=O)(=O)c1cccc(NC(=O)CN2CCN(Cc3ccc4c(c3)OCO4)CC2)c1` here?
Answer: inconclusive: 5.62 µM [inhibitor, single point]

Question: With `COC(=O)c1sccc1NC(=S)N1CCN(c2ccccc2F)CC1` as the compound, how does the Potency read?
Answer: inconclusive: 22.4 µM [inhibitor, single point]

Question: For `COc1ccccc1/C=C\C=N\n1c(-c2ccc(Cl)cc2Cl)n[nH]c1=S`, which Potency is on record?
Answer: inactive

Question: With `Cc1cc(C(=O)N/N=C/c2c(C)nn(-c3ccccc3)c2C)n[nH]1` as the compound, how does the Potency read?
Answer: inactive

Question: With `COC(=O)[C@@]1(Cc2ccccc2)[C@H]2C(=O)N(C)C(=O)[C@H]2[C@H]2CN=C(SCc3ccc(Cl)cc3)N21` as the compound, how does the Potency read?
Answer: inconclusive: 11.2 µM [inhibitor, partial curve, poor fit]

Question: With `COCCN(Cc1ccccc1)C(=O)c1cccc(S(=O)(=O)N(C)c2c(C)n(C)n(-c3ccccc3)c2=O)c1` as the compound, how does the Potency read?
Answer: inconclusive: 3.98 µM [inhibitor, single point]

Question: Which Potency does the source give for `COC(=O)CSc1nc2ccc(NC(=O)CSc3nnnn3Cc3ccccc3)cc2s1` here?
Answer: inconclusive: 35.5 µM [inhibitor, partial curve, poor fit]

Question: For `CCCCN1C(=O)C(O)(c2ccccc2)c2cc(Br)ccc21` (stereo not given), which Potency is on record?
Answer: inconclusive: 35.5 µM [inhibitor, single point]

Question: For `CCCN1CCN(CCCNC(=O)Cn2nc(C)n3c(cc4cc(F)ccc43)c2=O)CC1`, which Potency is on record?
Answer: inconclusive: 3.98 µM [inhibitor, single point]

Question: For `CCOc1ccc(CNC(=O)COc2cc(=O)n(C)c3ccccc23)cc1`, which Potency is on record?
Answer: inactive

Question: With `Cc1cc(Cl)ccc1OCCCC(=O)N1CCCc2ccccc21` as the compound, how does the Potency read?
Answer: inconclusive: 35.5 µM [inhibitor, single point]

Question: With `COc1ccc(C(=O)/C=C/c2ccc(O)cc2)c(O)c1CC=C(C)C` as the compound, how does the Potency read?
Answer: inconclusive: 17.8 µM [inhibitor, partial curve, poor fit]

Question: For `NC(=O)C1CCN(C(=O)C2CC(=O)N(Cc3ccccc3)C2)CC1` (stereo not given), which Potency is on record?
Answer: inactive

Question: Which Potency does the source give for `Cc1ccc(NC(=O)NCCc2c(C)nn(C)c2C)c(Cl)c1` here?
Answer: inactive

Question: Which Potency does the source give for `CCN(CC)C(=O)CN(c1ccc(Cl)cc1)S(=O)(=O)c1ccccc1` here?
Answer: inconclusive: 0.501 µM [inhibitor, full curve, poor fit]

Question: With `CC(C)(C)c1ccc(C(=O)N2CCN(CCNC(=O)C(=O)Nc3ccc(F)cc3)CC2)cc1` as the compound, how does the Potency read?
Answer: inconclusive: 35.5 µM [inhibitor, single point]

Question: Which Potency does the source give for `Cc1ccc(S(=O)(=O)Nc2ccc3c4c(cccc24)CC3)c(C)c1` here?
Answer: inconclusive: 35.5 µM [inhibitor, single point]

Question: Which Potency does the source give for `CC1=C(C)/C(=N\OS(=O)(=O)c2ccccc2)C=CC1=O` here?
Answer: inconclusive: 15.8 µM [inhibitor, partial curve, poor fit]

Question: With `CN(c1ccccc1)S(=O)(=O)c1cccc(NC(=O)CSc2nncs2)c1` as the compound, how does the Potency read?
Answer: inconclusive: 15.8 µM [inhibitor, single point]

Question: For `COc1cc(OC)cc(C(=O)N[C@H](C(=O)N2CCc3ccccc32)C(C)C)c1`, which Potency is on record?
Answer: inconclusive: 15.8 µM [inhibitor, single point]

Question: With `Cn1c(CNc2ccccc2O)nc2ccccc21` as the compound, how does the Potency read?
Answer: inconclusive: 11.2 µM [inhibitor, partial curve, poor fit]

Question: For `Cc1cccc(N2C(S)=C(C#N)C(=O)NC23CCCCC3)c1`, which Potency is on record?
Answer: inconclusive: 22.4 µM [inhibitor, single point]

Question: With `Cc1ccc(S(=O)(=O)N2CC3(O)CN(C(=O)OC(C)C)N(C(=O)OC(C)C)CC3(OC(=O)NCc3ccccc3)C2)cc1` (stereo not given) as the compound, how does the Potency read?
Answer: inconclusive: 20 µM [inhibitor, single point]

Question: For `C[C@H]1CCC[C@]2(O[C@H](CCO)C[C@H](O)[C@H]2O)O1`, which Potency is on record?
Answer: inactive
